Test results as given in the RNAGym collection of RNA variant scans (doi:10.1093/nar/gkz1192).
The source gives no read counts; variants with many changes may rest on few reads.

B1: CPEB3 Ribozyme (parent)
chain: UAACAGGGGGCCACAGCAGAAGCGUUCACGUCGCAGCCCCUGUCAGAUUCUGGUGAAUCUGCGAAUUCUGCUGUAUAUCUC

Variants of: B1
Test: self-cleavage, relative activity (ratio to wild type); higher = more cleavage; in vitro, sequencing
Outline: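 Relative activity compares each variant's cleaved/total read fraction with that of the unmutated ribozyme. To get these fractions, barcoded CPEB3 ribozyme libraries from rounds of error-prone PCR were transcribed with T7 RNA polymerase for 5 hours at 37°C and then given 15 min of DNase I treatment before EDTA was added. The RNAs were reverse transcribed with template switching and sequenced on Illumina, and DNA sequencing linked barcodes to variants. A minimum of 5 reads applied, and three batches were averaged.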

Row | Variant | self-cleavage
1 | U48C A56G U69A | 0.19
2 | U43A U54C U66C | 0.2
3 | A47G G53A U80A | 0.96
4 | U43C A56G A57U C68G U76G | 0.07
5 | U43C A45G U69A | 0.27
6 | U49A U51A U80C | 0.6
7 | A45G A57G U72C | 0.54
8 | U43C U48C G53U | 0.62
9 | U43C U60G A75U | 0.18
10 | A47U U49C U54A A75U | 0.17
11 | A47U U51A U80C | 0.26
12 | A45G A47G U72A U76C | 0.45
13 | A47C U49A A57G C81U | 0.47
14 | A45U A64G U76A | 0.39
15 | A45G U49C C79G | 0.1
16 | A45G A56G G61A A77U U78C | 0.64
17 | U43C A45G U60A U69A | 0.14
18 | U43C A57G U58C U69C | 0.21
19 | U48C U54A A64U U67C U72G U80C | 0.21
20 | U48C U58C U72C G73U U78A | 0.22
21 | U48C A57G A75G | 1.14

Row | Variant | self-cleavage
22 | A45G G52C A56G U72A | 0.37
23 | G46A U54G U58G U69A | 0.23
24 | A45G U66C U72C | 0.42
25 | U48C U49C C59A | 0.11
26 | A45U A64U U78C | 0.16
27 | A45C A77U C81A | 0.29
28 | U43A U60C U66C U78C C79G | 0.25
29 | C44U U48C U49C U66C U78C | 0.07
30 | G46U U54C U60A A64G U78A | 0.07
31 | A47G A77G U78A | 1.19
32 | U43A U67C U78C | 0.24
33 | A45U U49C U76C A77C | 0.32
34 | U49C G53A C59A U74A U76G | 0.07
35 | U48A U66C U78A | 0.1
36 | A45U C62U U72C | 0.16
37 | U43C C50A G53A U69A U78G | 0.26
38 | U43G U58C A64G | 0.18
39 | A45G U51A U60C | 1.17
40 | A45G U51C U54C A77G | 0.3
41 | A45G U54C U72C U74C C79A | 1.23
42 | A45G G46A A47G U67A | 0.31

Row | Variant | self-cleavage
43 | U43A U49C A56U U60A C62U A64G | 0.15
44 | U43C U60A U66A | 0.1
45 | U43C A64U U69C | 0.1
46 | U48C C79G U80C | 0.82
47 | U43C A56G U78C | 0.47
48 | U48C U54C U66C U69C | 0.17
49 | U43C U60C U69A | 0.02
50 | A47G U58A U78C C81U | 0.28
51 | C44U U51A U80C | 0.15
52 | U48C U60C G73A | 0.27
53 | A47U U49C U78C | 0.39
54 | U48C U51C A57G | 1
55 | A45U U74C A75G | 0.65
56 | A47U U48C U54C | 0.14
57 | U48C G70C U76C | 0.1
58 | A47G U48C A77U | 0.39
59 | U48C U69A U74A | 0.15
60 | A45G G70A A75U | 0.35
61 | U43C U60A A77G | 0.12
62 | U43A U49C U69C | 0.19
63 | A45G U51C U78C | 0.6

Row | Variant | self-cleavage
64 | A45U U49C A56U G70A U78A | 0.04
65 | A45C U60C A64G U72A | 0.16
66 | U48C U54C A64G U74C | 0.48
67 | A45G G46A U48C U58G C62U U78C | 0.11
68 | A45U G63U U80A | 0.64
69 | A47U U58C U80C | 0.34
70 | C44A U48C U51C | 0.05
71 | U49A U51C G52A U66A | 0.42
72 | U49A A77G U80A | 1.02
73 | A45C U51A U58C U67C | 0.13
74 | U43C U60C U74C | 0.25
75 | A45G U58A U67C | 0.35
76 | A47G A56U A77C | 0.18
77 | A45U U48C U51C | 0.5
78 | G46U U72C C79G U80G | 0.03
79 | A45C G70A G73A | 0.4
80 | U43C U60C U80C | 0.25
81 | U43A U49C A56G A65G | 0.64
82 | U48C U51G U80C | 0.46
83 | U43A U51C A65U U80C | 0.62
